# Data published in PubChem BioAssay AID686979 (National Center for Advancing Translational Sciences (NCATS), 2013).
# “And” between values parts separate entries of the source, which are not always exact repeats. Equal entries are not always repeated. Screen size: about 420,000 compounds; about 50,000 (12%) were called active. The shares of active, inactive and inconclusive entries below differ from those in the screen. The call rests on the fitted dose curve; in most records, active means well fitted inhibition curve with a large enough effect; inconclusive means small, poorly fitted or top-dose-only effect; inactive means flat fitted curve, though single readings scatter. No potency is given beside an inconclusive call; the fits are too rough.
# Assay: qHTS for Inhibitors of human tyrosyl-DNA phosphodiesterase 1 (TDP1): qHTS in cells in presence of CPT; further: nearly all actives have a fitted effect of over 55% in size
# Details: chicken DT40 Tdp1-/-;hTDP1 cells + 20 nM CPT, ATP luminescence, 48 h; activity change, negative = growth inhibition: at 46.2 µM (top of the series) unless noted
# How it was run: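 Chicken DT40 Tdp1-/- cells complemented with human TDP1, 400 cells/well, exposed to compounds plus 20 nM camptothecin for at least 48 h at 37 C; viability read as ATP content by CellTiter-Glo luminescence.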
# On the % scale 0 is the no-effect control and ±100 the full control effect; potency means the concentration at half of the fitted maximal effect; tags describe the fitted curve by direction and shape.
Structure (SMILES),Potency,"activity change, negative = growth inhibition"
COc1cc(-c2nc(C(=O)NCC3CCCO3)cc3c2[nH]c2ccccc23)cc(OC)c1OC (stereo unspecified),active: 5.8 µM,
Cc1ccc(C(=O)/C=C/c2ccc3c(c2)OCCO3)c(O)c1,"inconclusive [inhibitor, single point]",
CCOC(=O)c1cc(C)nn1-c1nc(Cl)cc(OC)n1,inactive,
CN(CC(=O)Nc1ccc(F)cc1)c1ccc(S(=O)(=O)N2CCCC2)cn1,"inconclusive [inhibitor, single point]",
CN(C(=O)C1CCCN(c2ncnc3c2nc2n3CCCCC2)C1)c1cccc(Cl)c1 (stereo unspecified),active: 13 µM,
Cn1c(O)c(N=NC(=O)c2ccccc2O)c2ccccc21,active: 13 µM,
O=c1[nH]n(-c2ccc(Cl)cc2)c(=O)c(Cl)c1Cl,"inconclusive [inhibitor, single point]",
NCCNc1cccc2ccccc12,"inconclusive [inhibitor, single point]",
CC(=O)N1C2=CCCC3CCCCC23c2ccccc21 (stereo unspecified),active: 20.6 µM,
COc1cccc(NC(=O)c2ccn(C)n2)c1,inactive,
COCCNC(=O)CSc1c2c(nc3cc(Cl)ccc13)CCCC2,"inconclusive [inhibitor, single point]",
Cc1c(/C=N/NC(N)=O)c2ccccn2c1C(=O)c1ccc(F)cc1,"inconclusive [inhibitor, single point]",
Cc1cc(NC(=O)Nc2cccc(Cl)c2)n(-c2ccccn2)n1,"inconclusive [inhibitor, single point]",
O=C(N/N=C/c1c(Cl)cccc1Cl)c1ccc(-n2cnnn2)cc1,inactive,
O=C(N/N=C/c1ccccn1)c1ccc(NC(=O)c2ccc(F)cc2)cc1,"inconclusive [inhibitor, single point]",
CCOc1ccc(CNC(=O)C2CCN(S(=O)(=O)N3CCCCC3)CC2)cc1,"inconclusive [inhibitor, single point]",
COc1ccc(CC(=O)Nc2ccncc2Cl)cc1,active: 4.61 µM,
Cc1cccc(C(=O)NNC(=O)c2ccccc2O)c1,"inconclusive [inhibitor, single point]",
CCCCSc1nnc2n(-c3cccc(C)c3)c(=O)c3c4c(sc3n12)CCCC4,"inconclusive [inhibitor, single point]",
Cc1ccccc1C(=O)N(Cc1cccs1)C1CCS(=O)(=O)C1 (stereo unspecified),inactive,
COc1ccc(Br)cc1CN(C)C(C)C(=O)Nc1cc([N+](=O)[O-])ccc1OC (stereo unspecified),"inconclusive [inhibitor, single point]",
N#Cc1c(NCCO)nc(NCc2ccccc2)c2c1CCN(Cc1ccccc1)C2,"inconclusive [inhibitor, single point]",
C#CCOCC1CN(C)C(=O)O1 (stereo unspecified),inactive,
COC1=CC(=O)OC(c2ccc(C#N)cc2)C1 (stereo unspecified),inactive,
O=c1ccn([C@@H]2O[C@H](CNCc3ccc(-n4cccn4)cc3)[C@@H](O)[C@H]2O)c(=O)[nH]1,inactive,
COc1ccc(NC(=O)CSc2nc3ccccc3[nH]2)cc1,"inconclusive [inhibitor, single point]",

Structure (SMILES),Potency,"activity change, negative = growth inhibition"
CCOC(=O)C1CCN(C(=O)CSc2n[nH]c(-c3ccccc3)n2)CC1,inactive,
COc1ccc(CCN(Cc2ccccn2)C(=S)Nc2ccccc2C)cc1OC,"inconclusive [inhibitor, single point]",
Fc1ccccc1Oc1ncnc2c1oc1ccccc12,"inconclusive [inhibitor, partial curve, poor fit]",
CCOC(=O)c1cnc2c(C)c(Cl)ccc2c1N1CCOCC1,"inconclusive [inhibitor, full curve]",
CCCCN1CCc2[nH]c(=S)[nH]c(=O)c2C1,"inconclusive [inhibitor, single point]",
CCN(CC)S(=O)(=O)c1ccc(C(O)=C(C#N)c2nc3ccccc3n2C)cc1,active: 16.4 µM,
CC(C)(CO)CNC(=O)CCc1nnc(-c2ccc(-c3ccccc3)cc2)o1,"inconclusive [inhibitor, single point]",
CCC1c2ccccc2C(=O)C1C(N)=O (stereo unspecified),inactive,
CCCCC(CC)CNC(=O)CCCc1nnc2n(CCC)c(=O)c3sccc3n12 (stereo unspecified),active: 20.6 µM,
Cc1ccc(NC(=O)CSCn2nnc3c(=O)[nH]c(Cc4ccc(F)cc4)nc32)c(C)c1,inactive,
O=C1Nc2ccccc2CN2C(=O)c3cc(Cl)ccc3NC(=O)C12 (stereo unspecified),inactive,
CSCc1cc(N(C)C)nc(SCc2ccc(Cl)cc2Cl)n1,"inconclusive [inhibitor, single point]",
CCOC(=O)C1=C(O)c2ccccc2C(=O)/C1=C\c1ccc(C)cc1,active: 5.8 µM,
O=C(c1cccc(F)c1)N1CCC2(CC1)CCN(c1ccncc1)CC2,active: 7.31 µM,
Cc1cc(Cl)ccc1Oc1nc(-c2ccc(F)cc2)ccc1C#N,"inconclusive [inhibitor, partial curve]",
N#CCC(=O)NC1CCC(CC2CCC(NC(=O)CC#N)CC2)CC1 (stereo unspecified),inactive,
COc1ccc(-c2cc3ccccc3n2CC(O)CNC(CO)(CO)CO)cc1 (stereo unspecified),"inconclusive [inhibitor, single point]",
Cn1c(=O)c2cc(NC(=O)CCc3ccc4c(c3)OCO4)ccc2n1Cc1ccc(F)cc1,active: 16.4 µM,
COc1ccc(-c2cc3nc(C)c(CCC(=O)N4CCN(c5ccccc5)CC4)c(C)n3n2)c(OC)c1,inactive,
Cc1c(CC(=O)NCc2ccccc2)c(=O)oc2c(C)c(O)ccc12,active: 13 µM,
Cc1ccc(NC(=S)NCc2ccc(S(N)(=O)=O)cc2)cc1Cl,"inconclusive [inhibitor, partial curve]",
C=CCn1c(-c2cccs2)nc2ccccc21,inactive,
CN(CC(=O)c1c(N)n(C)c(=O)n(C)c1=O)c1ccccc1,"inconclusive [inhibitor, single point]",
O=c1c([N+](=O)[O-])c(N2CCCCCC2)c2ccccc2n1-c1ccccc1,"inconclusive [inhibitor, single point]",
COc1ccc2cnn(-c3ccc(OC(F)(F)Cl)cc3)c(=O)c2c1OC,inactive,
COc1cc(NC(=O)CN2c3cccc4cccc(c34)S2(=O)=O)cc(OC)c1OC,"inconclusive [inhibitor, partial curve, poor fit]",

Structure (SMILES),Potency,"activity change, negative = growth inhibition"
COc1cc2c(=O)c(C(=O)c3ccc(C)c(C)c3)cn(Cc3ccccc3)c2cc1OC,active: 14.6 µM,
CN(C)C(=O)c1ccc(NC(=O)COC(=O)c2cc3c(s2)CCCCC3)cc1,inactive,
CCCCC(=O)NC(c1ccccc1)c1ccc2cccnc2c1O (stereo unspecified),active: 0.58 µM,
Cc1ccc(CC(=O)N2CCN(c3ccc([N+](=O)[O-])cc3)CC2)cc1,"inconclusive [inhibitor, single point]",
O=C(c1ccccc1)N1CCN(c2ncnc3c(-c4ccccc4)nsc23)CC1,"inconclusive [inhibitor, single point]",
COc1ccc(N2CCN(C(=O)COC(=O)c3cccc(S(=O)(=O)Nc4ccccc4OC)c3)CC2)cc1,"inconclusive [inhibitor, single point]",
CC(C)(C)n1ncc2c(=O)n(Cc3cccc(Cl)c3)cnc21,"inconclusive [inhibitor, single point]",
O=C(Nc1ccccc1F)c1ccc([N+](=O)[O-])s1,active: 20.6 µM,
CC(C)(C)C1=C(C#N)C(c2ccncc2)C(C#N)=C(N)O1 (stereo unspecified),active: 18.4 µM,
CCn1cc([N+](=O)[O-])c(C(=O)N2N=C3/C(=C/c4cccs4)CCCC3C2c2cccs2)n1 (stereo unspecified),"inconclusive [inhibitor, partial curve]",
Clc1ccc(Nc2ccc(NCc3ccccc3)nn2)cc1,inactive,
Cc1cc2c(cc1C)-n1nnnc1C(N(C)Cc1ccccc1)C(=O)N2 (stereo unspecified),active: 20.6 µM,
O=C(O)c1ccc(CNCc2ccc(F)cc2)cc1,inactive,
Cc1ccc(C(=O)Cn2cnc3ccccc3c2=O)cc1C,inactive,
COc1ccccc1-c1ccc2ncnc(NC3CCNCC3)c2c1,"inconclusive [inhibitor, single point]",
Cn1c2ccccc2c2nnc(SCCOc3ccccc3)nc21,"inconclusive [inhibitor, partial curve, poor fit]",
Cc1cc(OCC(O)CN2CCc3ccccc3C2)ccc1Cl (stereo unspecified),inactive,
Cc1coc2c1C(=O)C(=O)c1c-2ccc2c1CCCC2(C)C,active: 2.91 µM and active: 820 nM,
CCn1c(COc2ccc(C)cc2)nnc1SCC(=O)Nc1cc(OC)ccc1OC,"inconclusive [inhibitor, single point]",
CN1OC[C@@H]2CN(Cc3ccccc3)[C@H](c3cccc(-c4ccccc4)c3)C[C@@H]21,"inconclusive [inhibitor, single point]",
CC(C)c1ccc(S(=O)(=O)N2CCN(C(=S)NCc3ccco3)CC2)cc1,active: 14.6 µM,
COc1ccc(CN2Cc3ccccc3OC(c3ccccc3OC)C2)cc1O (stereo unspecified),,inactive: 2.75% [at 9.04 µM]
Cn1c(/N=C/c2c(O)ccc3ccccc23)nc2ccccc21,active: 3.26 µM,
CC(C)N(C(=O)[C@H]1C[C@H](CC(=O)NCCCN(C)C)C(=O)N2CCc3c([nH]c4ccc(Cl)cc34)[C@]12C)C(C)C,"inconclusive [inhibitor, single point]",
